# From PubChem BioAssay (Tox21)
# “And” between values parts separate entries of the source, which are not always exact repeats. Identical values can stand only once. This list was built around the results that the source calls inconclusive (neither active nor inactive); the mix of calls is not that of the screen. For part of these data: A potency beside an inconclusive call is a rough fit, not a confirmed value. Some structures have more than one record in an assay (separate samples or runs), and their calls can disagree. The source made the active and inactive calls. Unless noted, the call rests on the fitted dose curve; in most records, active means well fitted curve in the direction sought with a large enough effect in the repeat runs; inconclusive means weak or mixed curves; inactive means no such curve, though single readings can be large; an effect the other way counts as inactive or inconclusive.
# Tests used:
# [1] = qHTS assay for small molecule agonists of the p53 signaling pathway (AID 651631; calls by dose curve; further: nearly all actives have a fitted effect of over 15% in size; further: potency means the concentration at half of the fitted maximal effect); settings: HCT-116 p53RE-bla reporter, beta-lactamase FRET ratio, 16 h; activation: at 73.3 µM (top of the series) unless noted
# Method in brief: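 We treat p53RE-bla HCT-116 cells with compounds for 16 h at 37 °C, add LiveBLAzer B/G FRET substrate for 2 h at room temperature, and measure fluorescence intensity.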
# [2] = qHTS assay for identifying genotoxic compounds that show differential cytotoxicity against isogenic chicken DT40 cell lines with known DNA damage response pathways - wild type cell line (AID 743012); settings: DT40 wild type chicken cells viability, CellTiter-Glo, 40 h; activity change, negative = cytotoxicity: at 68.4 µM (top of the series) unless noted; further: nearly all actives have a fitted effect of over 60% in size; further: potency means the concentration at half of the fitted maximal effect
# Method in brief: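 CellTiter-Glo luminescence readout of viability in wild type DT40 cells after 40 h compound exposure at 37 C/5% CO2; 300 cells/well; reagent incubated 30 min at room temperature before reading.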
# [3] = qHTS assay for identifying genotoxic compounds that show differential cytotoxicity against isogenic chicken DT40 cell lines with known DNA damage response pathways - Rev3 mutant cell line (AID 743014); settings: chicken DT40 Rev3-/- viability, CellTiter-Glo, 40 h; activity, negative = cytotoxicity: at 68.4 µM (top of the series) unless noted; further: on the % scale 0 is the no-effect control and ±100 the full control effect; nearly all actives have a fitted effect of over 55% in size
# [4] = target: Peroxisome proliferator-activated receptor gamma (Homo sapiens) (UniProt P37231); assay: qHTS assay to identify small molecule antagonists of the peroxisome proliferator-activated receptor gamma (PPARg) signaling pathway (AID 743191; calls by dose curve; further: nearly all actives have a fitted effect of over 30% in size; further: potency means the concentration at half of the fitted maximal effect); settings: HEK293H PPARg-UAS-bla, beta-lactamase ratio, antagonist, 17 h; ratio activity, negative = inhibition: at 62.6 µM (top of the series) unless noted
# Sequence of UniProt P37231 (P37231 whole entry, looked up): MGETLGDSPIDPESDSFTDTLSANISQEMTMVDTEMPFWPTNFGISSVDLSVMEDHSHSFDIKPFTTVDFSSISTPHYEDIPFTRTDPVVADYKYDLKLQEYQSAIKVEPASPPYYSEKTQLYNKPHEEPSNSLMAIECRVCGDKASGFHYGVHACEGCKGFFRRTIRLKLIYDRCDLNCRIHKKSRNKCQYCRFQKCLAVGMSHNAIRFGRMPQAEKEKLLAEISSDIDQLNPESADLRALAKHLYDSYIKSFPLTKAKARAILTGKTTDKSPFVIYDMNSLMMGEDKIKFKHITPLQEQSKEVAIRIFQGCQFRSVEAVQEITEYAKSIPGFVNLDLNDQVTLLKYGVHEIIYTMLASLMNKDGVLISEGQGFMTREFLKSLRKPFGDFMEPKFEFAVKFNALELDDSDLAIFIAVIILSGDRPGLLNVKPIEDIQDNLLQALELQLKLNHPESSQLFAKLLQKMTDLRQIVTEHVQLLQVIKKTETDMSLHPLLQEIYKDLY
# Method in brief: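 GeneBLAzer PPARg UAS-bla HEK293H cells, 5 h post-plating, exposed to compounds 17 h at 37C. LiveBLAzer B/G FRET substrate added for 1 h at room temperature; beta-lactamase reporter read by fluorescence intensity.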
# [5] = qHTS assay to identify small molecule agonists of the progesterone receptor (PR) signaling pathway - cell viability counter screen (AID 1346799; calls by dose curve; further: nearly all actives have a fitted effect of over 45% in size; further: potency means the concentration at half of the fitted maximal effect)
# Method in brief: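 Here, 3,000 PR-UAS-bla HEK293T cells per well were treated with compounds for 16 hr after a 6 hr preincubation at 37C and 5% CO2; cell viability is the CellTiter-Glo luminescence signal.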
# [6] = target: Cytochrome P450 2C9 (Homo sapiens) (UniProt P11712); assay: Cytochrome P450 Family 2 Subfamily C Member 9 (CYP2C9) small molecule antagonists: luciferase reporter qHTS assay (AID 1671198); further: nearly all actives have a fitted effect of over 50% in size; further: potency means the concentration at half of the fitted maximal effect
# Sequence of UniProt P11712 (P11712 whole entry, looked up): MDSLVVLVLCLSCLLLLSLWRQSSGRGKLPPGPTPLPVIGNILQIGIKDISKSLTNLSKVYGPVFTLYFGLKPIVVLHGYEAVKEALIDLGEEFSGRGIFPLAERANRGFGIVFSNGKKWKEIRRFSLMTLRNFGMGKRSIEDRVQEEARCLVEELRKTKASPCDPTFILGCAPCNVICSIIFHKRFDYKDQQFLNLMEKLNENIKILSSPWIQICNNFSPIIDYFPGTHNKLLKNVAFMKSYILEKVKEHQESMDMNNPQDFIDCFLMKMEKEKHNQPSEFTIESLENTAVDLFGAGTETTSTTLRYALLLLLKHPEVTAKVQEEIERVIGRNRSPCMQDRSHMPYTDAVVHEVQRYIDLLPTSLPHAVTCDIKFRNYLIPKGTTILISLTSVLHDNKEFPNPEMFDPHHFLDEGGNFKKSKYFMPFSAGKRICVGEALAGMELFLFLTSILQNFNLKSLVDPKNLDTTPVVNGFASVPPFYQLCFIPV
# Method in brief: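 P450-Glo proluciferin substrate with CYP2C9 enzyme; 10 min RT preincubation, then NADPH regeneration 1 h at 37C; luciferin detection reagent 20 min RT, luminescence in relative luminescence units.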
# [7] = qHTS assay for small molecule disruptors of the mitochondrial membrane potential (AID 720635); settings: HepG2 mitochondrial membrane potential, Mito-MPS dye ratio; ratio activity, negative = MMP loss: at 83.2 µM (top of the series) unless noted; further: potency means the concentration at half of the fitted maximal effect
# Method in brief: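 HepG2 cells exposed to compound 1 hr at 37C, then Mito-MPS dye 30 min. Ratio read of aggregate (540/590 nm) versus monomer (490/535 nm) fluorescence.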
# [8] = qHTS assay to identify small molecule antagonists of the estrogen receptor alpha (ER-alpha) signaling pathway using the BG1 cell line - cell viability counter screen (AID 743081); settings: BG1Luc4E2 viability, CellTiter-Fluor, 22 h; activity change, negative = cytotoxicity: at 70.3 µM (top of the series) unless noted;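 further: compound given together with 17beta-estradiol as the ER stimulus; on the % scale 0 is the no-effect control and ±100 the full control effect; nearly all actives have a fitted effect of over 45% in size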
# [9] = qHTS assay to identify small molecule antagonists of the peroxisome proliferator-activated receptor delta (PPARd) signaling pathway - cell viability counter screen (AID 743213); settings: PPARd-bla HEK293H viability, CellTiter-Glo luminescence, 17 h; viability change, negative = cytotoxic: at 62 µM (top of the series) unless noted; further: nearly all actives have a fitted effect of over 50% in size; further: potency means the concentration at half of the fitted maximal effect
# Method in brief: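 HEK293H cells with the PPARd UAS-bla reporter, co-treated 17 h at 37 C with compounds and L165041 (300 nM final), were lysed with CellTiter-Glo. Luminescence indicated viable cell content.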
# [10] = target: Vitamin D3 receptor (Homo sapiens) (UniProt P11473); assay: qHTS assay to identify small molecule antagonists of the vitamin D receptor (VDR) signaling pathway (AID 743223; active means well fitted inhibition curve with a large enough effect in the signal ratio in the repeat runs, not every such curve was filed as active; inconclusive means weak or mixed curves, or effect the other way; inactive means no such curve, though single readings can be large or run the other way; the % refers to the signal ratio; further: on the % scale 0 is the no-effect control and ±100 the full control effect); settings: VDR-UAS-bla HEK293T, beta-lactamase FRET ratio, 16 h; activity change, negative = inhibition: at 61 µM (top of the series) unless noted
# Sequence of UniProt P11473 (P11473 whole entry, looked up): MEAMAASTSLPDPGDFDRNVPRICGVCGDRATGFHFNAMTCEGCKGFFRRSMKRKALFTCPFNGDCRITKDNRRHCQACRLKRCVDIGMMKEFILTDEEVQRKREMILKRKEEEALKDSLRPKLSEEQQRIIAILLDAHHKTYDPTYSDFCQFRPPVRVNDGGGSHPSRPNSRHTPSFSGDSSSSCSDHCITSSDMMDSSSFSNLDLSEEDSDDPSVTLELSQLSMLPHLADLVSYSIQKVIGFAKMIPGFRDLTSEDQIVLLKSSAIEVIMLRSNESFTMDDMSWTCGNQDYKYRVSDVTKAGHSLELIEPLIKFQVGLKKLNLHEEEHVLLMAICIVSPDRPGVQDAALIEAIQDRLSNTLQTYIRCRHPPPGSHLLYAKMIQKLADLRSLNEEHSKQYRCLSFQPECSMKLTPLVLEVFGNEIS
# Method in brief: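 Reporter line VDR-bla; stimulus 1alpha,25-(OH)2 vitamin D3, 3 nM final; compound co-addition, 16 h 37C/5% CO2; LiveBLAzer B/G substrate 2 h RT; fluorescence intensity.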
# [11] = target: Progesterone receptor (Homo sapiens) (UniProt P06401); assay: qHTS assay to identify small molecule antagonists of the progesterone receptor (PR) signaling pathway (AID 1346795; active means well fitted inhibition curve with a large enough effect in the signal ratio in the repeat runs, not every such curve was filed as active; inconclusive means weak or mixed curves; the % refers to the signal ratio; further: on the % scale 0 is the no-effect control and ±100 the full control effect); settings: PR-UAS-bla HEK293T, beta-lactamase FRET ratio, 16 h; activity change, negative = inhibition: at 92.4 µM (top of the series) unless noted
# Sequence of UniProt P06401 (P06401 whole entry, looked up): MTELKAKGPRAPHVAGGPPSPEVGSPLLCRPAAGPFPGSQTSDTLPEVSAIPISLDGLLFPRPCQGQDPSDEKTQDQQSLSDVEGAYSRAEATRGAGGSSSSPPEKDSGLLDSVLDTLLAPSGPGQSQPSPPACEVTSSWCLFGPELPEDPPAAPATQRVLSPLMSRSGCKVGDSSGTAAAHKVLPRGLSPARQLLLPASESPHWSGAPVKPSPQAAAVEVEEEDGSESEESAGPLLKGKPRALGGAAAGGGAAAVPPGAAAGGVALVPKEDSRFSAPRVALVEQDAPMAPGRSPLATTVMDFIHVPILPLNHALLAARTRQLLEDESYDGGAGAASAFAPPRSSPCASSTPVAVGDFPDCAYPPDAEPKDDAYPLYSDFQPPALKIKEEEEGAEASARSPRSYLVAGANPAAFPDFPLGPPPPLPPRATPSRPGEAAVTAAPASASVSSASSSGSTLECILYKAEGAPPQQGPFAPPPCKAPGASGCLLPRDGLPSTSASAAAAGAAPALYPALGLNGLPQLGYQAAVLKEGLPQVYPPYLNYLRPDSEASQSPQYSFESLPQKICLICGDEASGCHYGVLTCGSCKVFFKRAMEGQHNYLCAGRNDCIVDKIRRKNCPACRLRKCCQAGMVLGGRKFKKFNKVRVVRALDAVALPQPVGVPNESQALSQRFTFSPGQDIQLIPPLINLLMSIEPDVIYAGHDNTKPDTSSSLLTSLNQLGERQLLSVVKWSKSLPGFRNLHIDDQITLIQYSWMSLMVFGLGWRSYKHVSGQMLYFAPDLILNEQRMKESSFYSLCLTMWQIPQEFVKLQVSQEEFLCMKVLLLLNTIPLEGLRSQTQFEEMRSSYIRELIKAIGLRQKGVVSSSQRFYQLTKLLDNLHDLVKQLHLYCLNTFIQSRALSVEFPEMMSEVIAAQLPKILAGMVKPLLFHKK
# Method in brief: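 In HEK293T cells bearing the PR-UAS-bla reporter, compound effects on promegestone-driven (1 nM) beta-lactamase expression are assessed after 16 hr using a fluorescent FRET substrate incubated 2 hr at room temperature.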
# [12] = qHTS assay to identify small molecule antagonists of the estrogen receptor alpha (ER-alpha) signaling pathway - cell viability counter screen (AID 743074; calls by dose curve;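 further: HEK293 cells carrying ER-alpha-UAS-bla reporter stimulated with 17beta-estradiol; nearly all actives have a fitted effect of over 45% in size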; further: potency means the concentration at half of the fitted maximal effect)
# [13] = target: Peroxisome proliferator-activated receptor delta (Homo sapiens) (UniProt Q03181); assay: qHTS assay to identify small molecule antagonists of the peroxisome proliferator-activated receptor delta (PPARd) signaling pathway (AID 743215; active means well fitted inhibition curve with a large enough effect in the signal ratio in the repeat runs, not every such curve was filed as active; inconclusive means weak or mixed curves, or effect the other way; inactive means no such curve, though single readings can be large or run the other way; the % refers to the signal ratio;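 further: cells stimulated with agonist L165041 at 300 nM final during compound exposure; on the % scale 0 is the no-effect control and ±100 the full control effect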); settings: HEK293H PPARd-UAS-bla, beta-lactamase FRET ratio, antagonist, 17 h; ratio activity, negative = inhibition: at 62 µM (top of the series) unless noted
# Sequence of UniProt Q03181 (Q03181 whole entry, looked up): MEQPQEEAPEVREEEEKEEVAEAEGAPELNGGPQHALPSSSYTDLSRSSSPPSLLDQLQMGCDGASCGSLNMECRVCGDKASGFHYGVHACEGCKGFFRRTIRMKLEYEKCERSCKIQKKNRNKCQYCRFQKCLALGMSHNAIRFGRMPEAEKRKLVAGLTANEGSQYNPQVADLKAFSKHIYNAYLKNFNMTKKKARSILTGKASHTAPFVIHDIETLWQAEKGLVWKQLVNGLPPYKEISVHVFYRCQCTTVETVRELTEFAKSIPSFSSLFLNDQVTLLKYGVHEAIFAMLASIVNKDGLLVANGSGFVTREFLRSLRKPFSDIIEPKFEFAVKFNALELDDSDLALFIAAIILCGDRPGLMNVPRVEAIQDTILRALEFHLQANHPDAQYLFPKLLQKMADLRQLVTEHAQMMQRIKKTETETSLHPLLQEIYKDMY
# Method in brief: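 HEK293H GeneBLAzer PPARd UAS-bla reporter cells; cpd + L165041 300 nM final, 17 h 37 C; LiveBLAzer B/G FRET substrate 2 h RT; fluorescence intensity read-out. Antagonist mode.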
# [14] = target: Cytochrome P450 2C19 (Homo sapiens) (UniProt P33261); assay: Cytochrome P450 Family 2 Subfamily C Member 19 (CYP2C19) small molecule antagonists: luciferase reporter qHTS assay (AID 1671197); further: potency means the concentration at half of the fitted maximal effect; nearly all actives have a fitted effect of over 65% in size
# Sequence of UniProt P33261 (P33261 whole entry, looked up): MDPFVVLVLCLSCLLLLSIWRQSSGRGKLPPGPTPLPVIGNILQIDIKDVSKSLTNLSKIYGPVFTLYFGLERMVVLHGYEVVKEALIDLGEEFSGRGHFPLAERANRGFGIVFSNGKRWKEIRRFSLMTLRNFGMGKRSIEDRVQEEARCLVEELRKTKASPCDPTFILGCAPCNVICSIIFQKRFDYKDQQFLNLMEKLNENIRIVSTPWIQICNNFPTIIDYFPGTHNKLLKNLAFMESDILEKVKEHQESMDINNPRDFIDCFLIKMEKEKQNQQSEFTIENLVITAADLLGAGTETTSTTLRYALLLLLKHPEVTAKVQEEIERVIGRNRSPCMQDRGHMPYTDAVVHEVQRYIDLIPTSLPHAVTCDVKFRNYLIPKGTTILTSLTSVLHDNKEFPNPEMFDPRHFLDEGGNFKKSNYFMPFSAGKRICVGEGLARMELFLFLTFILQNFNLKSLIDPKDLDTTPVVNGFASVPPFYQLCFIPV
# Method in brief: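 Relative luminescence units recorded 20 min after the detection reagent stopped a 1 h, 37C CYP2C19 reaction on proluciferin substrate, which was started by NADPH regeneration following 10 min room-temperature compound preincubation; ketoconazole positive control.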
# [15] = target: Estrogen receptor (Homo sapiens) (UniProt P03372); assay: qHTS assay to identify small molecule agonists of the estrogen receptor alpha (ER-alpha) signaling pathway using the BG1 cell line (AID 743079); settings: BG1Luc4E2 cells, ERE-luciferase agonist, 22 h; activation: at 70.3 µM (top of the series) unless noted; further: potency means the concentration at half of the fitted maximal effect; nearly all actives have a fitted effect of over 20% in size
# [16] = target: Glucocorticoid receptor (Homo sapiens) (UniProt P04150); assay: qHTS assay to identify small molecule antagonists of the glucocorticoid receptor (GR) signaling pathway (AID 720692; active means well fitted inhibition curve with a large enough effect in the signal ratio in the repeat runs, not every such curve was filed as active; inconclusive means weak or mixed curves, or effect the other way; inactive means no such curve, though single readings can be large or run the other way; the % refers to the signal ratio; further: on the % scale 0 is the no-effect control and ±100 the full control effect); settings: GR-bla HeLa, beta-lactamase FRET ratio, dexamethasone-stimulated, 18 h; activity change, negative = inhibition: at 58.5 µM (top of the series) unless noted
# Sequence of UniProt P04150 (P04150 whole entry, looked up): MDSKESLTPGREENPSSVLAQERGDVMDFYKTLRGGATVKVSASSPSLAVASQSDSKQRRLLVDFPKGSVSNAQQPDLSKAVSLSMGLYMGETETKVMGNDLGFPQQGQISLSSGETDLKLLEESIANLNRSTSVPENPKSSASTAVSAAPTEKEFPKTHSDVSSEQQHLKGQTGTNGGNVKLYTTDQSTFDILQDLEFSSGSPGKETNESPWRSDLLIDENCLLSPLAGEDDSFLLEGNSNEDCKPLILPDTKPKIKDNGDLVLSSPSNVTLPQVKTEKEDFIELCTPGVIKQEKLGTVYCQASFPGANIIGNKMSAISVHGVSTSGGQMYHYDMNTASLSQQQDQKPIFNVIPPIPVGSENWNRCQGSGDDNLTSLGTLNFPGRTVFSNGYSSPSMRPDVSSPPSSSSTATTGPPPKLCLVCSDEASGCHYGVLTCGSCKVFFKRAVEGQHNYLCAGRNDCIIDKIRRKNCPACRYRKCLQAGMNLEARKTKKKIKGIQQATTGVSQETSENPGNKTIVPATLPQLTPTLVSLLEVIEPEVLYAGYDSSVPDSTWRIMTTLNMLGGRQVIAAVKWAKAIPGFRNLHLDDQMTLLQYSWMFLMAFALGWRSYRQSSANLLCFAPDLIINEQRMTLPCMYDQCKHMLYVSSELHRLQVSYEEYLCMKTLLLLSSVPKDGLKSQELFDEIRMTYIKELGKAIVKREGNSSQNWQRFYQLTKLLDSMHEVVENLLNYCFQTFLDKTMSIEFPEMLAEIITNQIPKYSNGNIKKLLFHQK
# Method in brief: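 Read-out: beta-lactamase FRET substrate fluorescence, 2 h at room temperature, in HeLa cells stably carrying a GRE-driven bla reporter. Compounds were co-incubated with 5 nM dexamethasone agonist (final) for 18 h at 37 C.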
# [17] = qHTS assay to identify small molecule antagonists of the thyroid receptor (TR) signaling pathway - cell viability counter screen (AID 743064); settings: GH3.TRE-Luc viability, CellTiter-Fluor, 24 h; activity change, negative = cytotoxic: at 70.3 µM (top of the series) unless noted; further: potency means the concentration at half of the fitted maximal effect; nearly all actives have a fitted effect of over 50% in size
# Method in brief: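 In rat pituitary GH3.TRE-Luc reporter cells co-exposed to compound and 1 nM T3 for 23.5 h, cytotoxicity was assessed with CellTiter-Fluor in the same wells, read by fluorescence.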
# [18] = qHTS assay for small molecule agonists of the antioxidant response element (ARE) signaling pathway (AID 743202; active means well fitted activation curve with a large enough effect in the signal ratio in the repeat runs, not every such curve was filed as active; inconclusive means weak or mixed curves, or effect the other way; inactive means no such curve, though single readings can be large or run the other way; the % refers to the signal ratio; further: on the % scale 0 is the no-effect control and ±100 the full control effect); settings: HepG2 ARE-bla reporter, beta-lactamase FRET, 16 h; activation: at 73.3 µM (top of the series) unless noted
# Method in brief: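 HepG2 ARE-bla cells; 16 h treatment at 37 C; FRET-based beta-lactamase fluorescence read after 2 h substrate incubation at room temperature.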
# [19] = target: Cytochrome P450 1A2 (Homo sapiens) (UniProt P05177); assay: Cytochrome P450 Family 1 Subfamily A Member 2 (CYP1A2) small molecule antagonists: luciferase reporter qHTS assay (AID 1671199); further: potency means the concentration at half of the fitted maximal effect; nearly all actives have a fitted effect of over 50% in size
# Sequence of UniProt P05177 (P05177 whole entry, looked up): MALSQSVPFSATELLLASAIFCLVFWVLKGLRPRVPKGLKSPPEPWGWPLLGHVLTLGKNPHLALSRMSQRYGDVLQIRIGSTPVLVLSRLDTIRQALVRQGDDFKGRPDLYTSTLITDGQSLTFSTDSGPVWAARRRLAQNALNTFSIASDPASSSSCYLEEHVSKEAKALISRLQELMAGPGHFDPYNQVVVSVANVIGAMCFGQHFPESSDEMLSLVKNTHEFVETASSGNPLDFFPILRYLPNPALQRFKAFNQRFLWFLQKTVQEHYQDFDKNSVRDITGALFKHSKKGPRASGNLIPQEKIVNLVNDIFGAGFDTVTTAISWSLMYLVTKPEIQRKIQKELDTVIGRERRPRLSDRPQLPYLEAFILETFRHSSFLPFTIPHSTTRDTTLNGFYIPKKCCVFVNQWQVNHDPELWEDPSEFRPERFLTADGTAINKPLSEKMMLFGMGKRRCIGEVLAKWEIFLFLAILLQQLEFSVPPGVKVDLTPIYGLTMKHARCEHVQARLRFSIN
# Method in brief: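 Luminescence readout (relative luminescence units) after luciferin detection reagent, 20 min RT. Preceded by 1 h room-temperature CYP1A2 reaction with NADPH regeneration solution following 10 min compound preincubation with enzyme and proluciferin substrate. Furafylline positive control.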
# Tags describe the fitted curve by direction and shape or compound fluorescence and quenching.
structure (smiles),measurement,setting,value
CCCCCCCCCCCCCCBr,Potency,[1],inconclusive: 75.7 µM [activator]
same,Potency,[2],"inconclusive: 15.1 µM [rising, full curve, poor fit]"
same,Potency,[3],inactive
same,Potency,[4],inactive
same,Potency,[5],"inconclusive: 0.675 µM [rising, partial curve, poor fit]"
same,Potency,[6],inactive
C=C(C)C(=O)OCCOP(=O)(O)OCCOC(=O)C(=C)C,Potency,[7],inactive
same,Potency,[8],inactive
same,Potency,[9],"inconclusive: 12.3 µM [cytotoxic, single point]"
same,"activity change, negative = inhibition",[10],inconclusive: 0.786%
same,Potency,[11],inactive
CO[C@@H]1[C@@H](OC(N)=O)[C@@H](O)[C@H](Oc2ccc3c(O)c(NC(=O)c4ccc(O)c(CC=C(C)C)c4)c(=O)oc3c2C)OC1(C)C,Potency,[7],"inconclusive: 12.7 µM [rising, partial curve, poor fit]"
same,Potency,[12],inactive
same,Potency,[4],"inconclusive: 0.944 µM [rising, full curve, poor fit]"
same,Potency,[13],inactive
same,Potency,[5],"inconclusive: 2.98 µM [cytotoxic, single point]"
same,Potency,[14],"inconclusive: 34.7 µM [inhibitor, single point]"
CN1CCN(c2c(F)cc3c(=O)c(C(=O)O)cn4c3c2OCN4C)CC1,Potency,[7],"inconclusive: 5.31 µM [activator, partial curve, poor fit]"
same,Potency,[15],active: 23.7 µM
same,"ratio activity, negative = inhibition",[4],inconclusive: 5.26% [at 29.1 µM]
same,Potency,[9],"inconclusive: 0.326 µM [cytotoxic, single point]"
same,"activity change, negative = cytotoxicity",[5],inactive: 0.954% [at 19 µM]
same,"activity change, negative = inhibition",[6],inactive: 9.24% [at 23.6 µM]
CC(C)(O)C(=O)c1ccccc1,Potency,[1],"inconclusive: 68.6 µM [activator, partial curve, poor fit]"
same,Potency,[7],inactive
same,Potency,[16],inactive
same,Potency,[17],"inconclusive: 68.6 µM [rising, single point]"
same,Potency,[18],inactive
same,Potency,[9],"inconclusive: 5.49 µM [cytotoxic, single point]"
same,"ratio activity, negative = inhibition",[13],inconclusive: 0.418%
same,"activity change, negative = inhibition",[10],inconclusive: 24.6%
same,Potency,[19],"inconclusive: 12.6 µM [inhibitor, full curve]"
C[Si](C)(C)C,activation,[1],inconclusive: 4.77%
same,Potency,[7],inactive
same,Potency,[2],inactive
same,"ratio activity, negative = inhibition",[4],inconclusive: -0.609%
same,Potency,[18],inactive
same,Potency,[13],inactive
same,Potency,[19],"inconclusive: 85.1 µM [inhibitor, partial curve, poor fit]"
NC(N)=O,Potency,[7],"inconclusive: 668 nM [activator, full curve, poor fit] and inconclusive: 486 nM [activator, partial curve]"
same,Potency,[2],"inconclusive: 0.486 µM [rising, full curve, poor fit]"
same,Potency,[12],"inconclusive: 20.7 µM [cytotoxic, single point]"
same,"ratio activity, negative = inhibition",[4],inconclusive: 0.436%
same,activation,[18],inconclusive: 12.4%
same,"viability change, negative = cytotoxic",[9],inconclusive: 36.6%
same,"activity change, negative = inhibition",[11],inconclusive: 0.46%
same,Potency,[6],"inconclusive: 59.8 µM [inhibitor, partial curve, poor fit]"
same,Potency,[19],"inconclusive: 71 µM [inhibitor, partial curve, poor fit]"
